These results are taken from article PMC12153800.

Amino acid sequences for entries named in this document (tags omitted). Residues count along the entry.
UniProt Q61091, residues 28-685: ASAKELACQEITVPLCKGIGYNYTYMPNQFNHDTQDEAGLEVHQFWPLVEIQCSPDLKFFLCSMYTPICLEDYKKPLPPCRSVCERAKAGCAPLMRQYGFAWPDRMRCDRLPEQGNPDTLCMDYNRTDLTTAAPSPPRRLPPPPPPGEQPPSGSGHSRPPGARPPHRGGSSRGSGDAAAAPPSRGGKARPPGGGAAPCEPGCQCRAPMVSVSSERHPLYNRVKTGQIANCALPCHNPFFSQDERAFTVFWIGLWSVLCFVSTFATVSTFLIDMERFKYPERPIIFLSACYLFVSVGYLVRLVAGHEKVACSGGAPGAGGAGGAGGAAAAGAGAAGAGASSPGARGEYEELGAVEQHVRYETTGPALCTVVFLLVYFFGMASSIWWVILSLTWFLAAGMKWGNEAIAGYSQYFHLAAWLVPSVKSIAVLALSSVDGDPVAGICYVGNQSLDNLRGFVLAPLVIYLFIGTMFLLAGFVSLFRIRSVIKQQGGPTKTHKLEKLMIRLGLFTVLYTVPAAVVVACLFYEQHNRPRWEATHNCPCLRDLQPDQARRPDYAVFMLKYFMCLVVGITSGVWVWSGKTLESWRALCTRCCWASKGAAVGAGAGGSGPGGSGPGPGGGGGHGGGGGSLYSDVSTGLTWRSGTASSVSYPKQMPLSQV
UniProt Q9EQD0, residues 27-585: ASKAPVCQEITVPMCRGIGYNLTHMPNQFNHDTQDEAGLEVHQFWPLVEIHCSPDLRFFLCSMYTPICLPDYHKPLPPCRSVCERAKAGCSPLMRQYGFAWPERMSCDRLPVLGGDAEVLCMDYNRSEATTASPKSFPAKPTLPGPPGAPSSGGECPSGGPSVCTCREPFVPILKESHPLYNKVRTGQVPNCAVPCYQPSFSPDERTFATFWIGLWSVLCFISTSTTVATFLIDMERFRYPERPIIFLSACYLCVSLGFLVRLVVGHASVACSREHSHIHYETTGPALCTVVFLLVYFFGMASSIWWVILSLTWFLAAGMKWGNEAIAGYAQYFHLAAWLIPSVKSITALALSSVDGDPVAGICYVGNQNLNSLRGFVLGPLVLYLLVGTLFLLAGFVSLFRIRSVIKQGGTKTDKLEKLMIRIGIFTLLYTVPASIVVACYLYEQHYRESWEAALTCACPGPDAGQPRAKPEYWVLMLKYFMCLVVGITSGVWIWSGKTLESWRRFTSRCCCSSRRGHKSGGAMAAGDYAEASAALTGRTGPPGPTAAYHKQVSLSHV

These are yes or no findings as the source states them, for the method shown. In cells and extracts the contact can be indirect. Some binding calls cover weakened binding; strength is not graded here. Tags and fused reporters may be left off the sequences shown.

Test in all cases: FRET or BRET; NanoBiT/BRET association kinetics on live U-2 OS cells stably expressing low levels of HiBiT-FZD-mCherry; LgBiT and Vivazine added; four concentrations of eGFP-Wnt conditioned medium (Wnt3a up to 15.2 nM, Wnt5a up to 17.3 nM, Wnt16 up to 24 nM); 37 °C, DMEM with 5% FBS and 10 mM HEPES, read every 80 s for 300 min; kinetic Kd
For orientation: In BRET a luciferase serves as donor, and the signal depends on an acceptor being close.

In assay [1] the target is T1, HiBiT-FZD4-mCherry (mouse) (UniProt Q61088).
T1 sequence: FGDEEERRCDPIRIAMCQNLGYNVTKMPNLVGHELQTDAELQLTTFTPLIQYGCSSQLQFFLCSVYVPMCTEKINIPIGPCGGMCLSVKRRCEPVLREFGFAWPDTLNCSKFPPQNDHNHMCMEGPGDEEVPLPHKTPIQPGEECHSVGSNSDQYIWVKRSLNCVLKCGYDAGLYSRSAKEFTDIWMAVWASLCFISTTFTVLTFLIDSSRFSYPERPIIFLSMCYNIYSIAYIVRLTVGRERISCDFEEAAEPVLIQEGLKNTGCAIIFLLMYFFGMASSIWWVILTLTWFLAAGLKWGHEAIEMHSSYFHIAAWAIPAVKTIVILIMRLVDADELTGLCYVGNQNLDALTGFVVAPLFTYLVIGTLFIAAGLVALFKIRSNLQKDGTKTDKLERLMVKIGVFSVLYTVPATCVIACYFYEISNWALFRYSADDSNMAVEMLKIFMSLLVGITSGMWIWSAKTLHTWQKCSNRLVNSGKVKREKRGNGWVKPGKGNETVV

The target in assay [2] is T2, HiBiT-FZD9-mCherry (mouse) (UniProt Q9R216).
T2 sequence: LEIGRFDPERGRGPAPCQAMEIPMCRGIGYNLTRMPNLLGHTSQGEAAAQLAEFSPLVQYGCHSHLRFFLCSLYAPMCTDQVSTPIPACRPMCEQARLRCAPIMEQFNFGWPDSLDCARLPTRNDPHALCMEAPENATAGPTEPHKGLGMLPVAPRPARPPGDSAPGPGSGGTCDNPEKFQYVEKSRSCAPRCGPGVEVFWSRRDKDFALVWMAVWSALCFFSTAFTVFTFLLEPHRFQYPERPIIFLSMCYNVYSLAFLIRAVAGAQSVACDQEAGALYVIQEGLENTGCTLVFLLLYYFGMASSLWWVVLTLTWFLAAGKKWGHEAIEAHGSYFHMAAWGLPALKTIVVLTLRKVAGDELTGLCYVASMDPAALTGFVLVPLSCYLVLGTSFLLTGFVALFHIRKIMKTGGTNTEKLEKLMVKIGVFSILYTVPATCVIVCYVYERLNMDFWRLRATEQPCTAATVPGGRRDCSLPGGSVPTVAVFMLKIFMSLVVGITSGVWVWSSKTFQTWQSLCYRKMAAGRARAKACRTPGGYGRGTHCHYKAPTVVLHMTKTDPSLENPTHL

A further assay has as its target T3, HiBiT-FZD6-mCherry (UniProt Q61089).
T3 sequence: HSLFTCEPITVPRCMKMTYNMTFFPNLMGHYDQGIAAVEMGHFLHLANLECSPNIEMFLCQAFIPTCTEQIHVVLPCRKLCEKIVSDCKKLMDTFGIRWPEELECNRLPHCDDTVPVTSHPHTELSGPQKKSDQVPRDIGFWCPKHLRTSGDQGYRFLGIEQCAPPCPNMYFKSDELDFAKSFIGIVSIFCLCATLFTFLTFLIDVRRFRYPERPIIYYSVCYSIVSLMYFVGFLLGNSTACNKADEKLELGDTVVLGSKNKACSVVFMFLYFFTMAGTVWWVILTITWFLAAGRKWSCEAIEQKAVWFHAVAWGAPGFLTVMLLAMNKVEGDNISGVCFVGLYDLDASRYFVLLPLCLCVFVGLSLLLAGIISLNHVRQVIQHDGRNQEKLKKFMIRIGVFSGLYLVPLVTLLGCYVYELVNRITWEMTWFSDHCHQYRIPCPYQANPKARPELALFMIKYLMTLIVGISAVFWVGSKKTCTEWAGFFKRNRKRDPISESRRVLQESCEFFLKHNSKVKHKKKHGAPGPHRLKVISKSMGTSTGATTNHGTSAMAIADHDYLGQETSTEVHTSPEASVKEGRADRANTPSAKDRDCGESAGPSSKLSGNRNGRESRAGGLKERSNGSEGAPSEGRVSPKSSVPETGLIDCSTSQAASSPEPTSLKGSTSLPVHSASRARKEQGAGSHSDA

For assay [3], the target named is HiBiT-FZD8-mCherry (mouse) (UniProt Q61091).
In assay [4] the target is HiBiT-FZD5-mCherry (U-2 OS cells) (mouse) (UniProt Q9EQD0).

B1: eGFP-Wnt5a (ligand, UniProt P41221 62-380)
chain: IIGAQPLCSQLAGLSQGQKKLCHLYQDHMQYIGEGAKTGIKECQYQFRHRRWNCSTVDNTSVFGRVMQIGSRETAFTYAVSAAGVVNAMSRACREGELSTCGCSRAARPKDLPRDWLWGGCGDNIDYGYRFAKEFVDARERERIHAKGSYESARILMNLHNNEAGRRTVYNLADVACKCHGVSGSCSLKTCWLQLADFRKVGDALKEKYDSAAAMRLNSRGKLVQVNSRFNSPTTQDLVYIDPSPDYCVRNESTGSLGTQGRLCNKTSEGMDGCELMCCGRGYDQFKTVQTERCHCKFHWCCYVKCKKCTEIVDQFVCK
As for B1, the binding entry was “binds” in assay [1]; “no binding (tested: 17.3 nM)” in assay [2]; “no binding (tested: 17.3 nM)” in the assay with HiBiT-FZD6-mCherry; “binds” in assay [3]; “binds” in assay [4].

B2: eGFP-Wnt16 (ligand, UniProt Q9UBV4 30-365)
chain: NWMWLGIASFGVPEKLGCANLPLNSRQKELCKRKPYLLPSIREGARLGIQECGSQFRHERWNCMITAAATTAPMGASPLFGYELSSGTKETAFIYAVMAAGLVHSVTRSCSAGNMTECSCDTTLQNGGSASEGWHWGGCSDDVQYGMWFSRKFLDFPIGNTTGKENKVLLAMNLHNNEAGRQAVAKLMSVDCRCHGVSGSCAVKTCWKTMSSFEKIGHLLKDKYENSIQISDKTKRKMRRREKDQRKIPIHKDDLLYVNKSPNYCVEDKKLGIPGTQGRECNRTSEGADGCNLLCCGRGYNTHVVRHVERCECKFIWCCYVRCRRCESMTDVHTCK
Turning to B2, the binding entry in assay [1] is recorded as “binds”; in assay [2] it was “no binding (tested: 24 nM)”; in the assay with HiBiT-FZD6-mCherry it was “no binding (tested: 24 nM)”; in assay [3] it was “binds”; in assay [4] it was “binds”.
